The list shows a part of the results. Shown are side measurements of this screen, not its main read-out; they come without a call. Compounds called inactive in the main read-out are mostly missing here. Potencies come from curve fits of mixed quality, noted in brackets.
Tags give direction and shape of the fitted curve.

The assay deals with Nicotinamide N-methyltransferase (Homo sapiens) (UniProt P40261). As to the kind of experiment: Confirmatory Screen for Target Class Profiling of Small Molecule Inhibitors of Methyltransferases (AID 1745852).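 Note: inhibitor potency for blocking SAH production.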 Particulars: MTase-Glo luminescence, SAH detection, recombinant enzyme; measured here: NNMT inhibition potency.
Chain of UniProt P40261 (P40261 whole entry, looked up): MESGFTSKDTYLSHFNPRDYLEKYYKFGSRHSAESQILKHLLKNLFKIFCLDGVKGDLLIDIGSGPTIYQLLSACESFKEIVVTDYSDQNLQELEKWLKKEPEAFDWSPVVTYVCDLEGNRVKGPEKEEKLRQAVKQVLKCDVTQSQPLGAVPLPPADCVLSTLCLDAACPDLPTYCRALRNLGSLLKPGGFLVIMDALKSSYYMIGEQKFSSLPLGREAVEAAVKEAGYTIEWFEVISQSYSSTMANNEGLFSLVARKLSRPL
For orientation: IC50 means the concentration at which inhibition is half-maximal. `COc1ccc(CCN2C(=O)c3cc4oc(C)cc4n3CC2(C)C(=O)NC2CCCCC2)cc1OC` (stereo not given): the IC50 was 4.82 µM [falling, full curve].

For `CCS(=O)(=O)N1CCN(c2ccc(Nc3ncc(C(N)=O)c(NC4CC4)n3)cc2)CC1`, the IC50 was 12.1 µM [falling, partial curve].

Consider `CC(C)n1cc(-c2ccc(Oc3ccccc3)cc2)c2c(N)ncnc21`, for which the concentration for half-maximal inhibition (IC50) was 21.5 µM [falling, partial curve].

With `CNS(=O)(=O)CC1CCC(N(C)c2ncnc3[nH]ccc23)CC1` (stereo not given), the IC50 is 19.2 µM [falling, partial curve]. As for `CC(C)Cn1c(=O)c2ccccc2n2c(CCC(=O)N3CCN(c4cccc(Cl)c4)CC3)nnc12`, the figure is 6.81 µM [falling, full curve]; as for `CCc1ccc(NS(=O)(=O)c2ccc3c(c2)n(C)c(=O)n3C)cc1`, 19.2 µM [falling, partial curve]. As for `COc1cccc(CN2C(=O)c3nc4ccccc4n3CC2(C)C(=O)NC2CCC(C)CC2)c1` (stereo not given), the figure is 21.5 µM [falling, partial curve]; as for `O=C1CSc2ccccc2N1Cc1cccc(C(F)(F)F)c1`, 21.5 µM [falling, partial curve]; as for `Cc1nc(NC(=O)C2CC(=O)N(c3n[nH]c4cc(Br)ccc34)C2)sc1C` (stereo not given), 1.93 µM [falling, full curve].

As for `O=C(c1ccccc1)c1ccc2nc(NC(=O)c3csc(C4CCN(c5ncnc6ccsc56)CC4)n3)[nH]c2c1`, the IC50 was 1.71 µM [falling, full curve]. To `Cn1cc(-c2ccc(F)c(C(F)(F)F)c2)nc1C1CCN(c2ncnc3[nH]ncc23)CC1` belongs 2.71 µM [falling, partial curve]; to `O=c1[nH]ccc2nc(-c3ccc(CN4CCC(c5nc(-c6ccccn6)n[nH]5)CC4)cc3)c(-c3ccccc3)cc12`, 21.5 µM [falling, partial curve]; to `CC1(C)[C@@H](O)CC[C@]2(C)[C@H]3CC=C4[C@@H]5C[C@](C)(C(=O)O)CC[C@]5(C)CC[C@@]4(C)[C@]3(C)CC[C@@H]12`, 30.4 µM [falling, single point].

On to `CCCCCc1ccc(/C=C/C(=O)Nc2cc(Cl)ccc2C(=O)O)cc1`, for which the IC50 is 27.1 µM [falling, partial curve]. To `COC(=O)c1cc2n(n1)CC(C)(C(=O)NC1CCC(C)CC1)N(Cc1ccc(OC)cc1OC)C2=O` (stereo not given) belongs 19.2 µM [falling, partial curve]; to `Nc1nonc1-c1nc2cnccc2n1C1CCCCC1`, 21.5 µM [falling, partial curve]. To `O=[N+]([O-])c1ccc(CNc2nc(NCc3cccc(C(F)(F)F)c3)nc3nc[nH]c23)cc1` belongs 12.1 µM [falling, partial curve]; to `O=C1NCc2c1c1c3ccccc3[nH]c1c1[nH]c3ccccc3c21`, 30.6 µM [falling, partial curve, poor fit]; to `Nc1ncnc2c1c(-c1cnc3[nH]ccc3c1)nn2C1CCCC1`, 21.5 µM [falling, partial curve]. As for `Cc1cccc(N2CCN(C(=O)CCc3nnc4n(CC(C)C)c(=O)c5ccccc5n34)CC2)c1C`, the figure is 10.8 µM [falling, partial curve]; as for `S=c1ssc2c1CCC2`, 5.41 µM [falling, partial curve]. For `O=C(O)c1cccc(CN2C(=O)/C(=C(\c3ccccc3)c3ccc(Cl)cc3)c3ccccc32)c1`, the half-maximal inhibitory concentration (IC50) was 27.1 µM [falling, partial curve]. To `O=C(COCC(=O)N1CCN(C(c2ccccc2)c2ccccc2)CC1)Nc1ccc(Cl)cc1C(=O)O` belongs 21.5 µM [falling, partial curve]; to `COc1ccc(CN2C(=O)c3cc4ccccc4n3CC2(C)C(=O)NCc2ccccc2)cc1OC` (stereo not given), 15.2 µM [falling, partial curve]; to `COc1c2c(c(C)c3c1C(=O)OC3)O[C@@]1(C)C[C@@H](OC(C)=O)[C@]34O[C@](OC)(CC[C@]3(C)[C@H]1C2)OC4(C)C`, 10.5 µM [falling, partial curve]. As for `CC1CC(=O)C2=C(O1)OC1(C)CCC3C(C)(C)C4OC4C(=O)C3(C)C1C2` (stereo not given), the figure is 0.133 µM [falling, full curve]. As for `CN1CCN(C(=O)c2ccc(Nc3nccc(-c4cccs4)n3)cc2Cl)CC1`, the half-inhibitory concentration (IC50) was 24.1 µM [falling, single point]. In the case of `N#Cc1c(O)c2c(-c3ccc(-c4ccccc4O)cc3)csc2[nH]c1=O`, the IC50 is 24.1 µM [falling, single point]. As for `CC(C)n1nc(Cc2cccc3ccccc23)c2c(N)ncnc21`, the figure is 24.1 µM [falling, partial curve, poor fit]; as for `CC(C)Cn1c(=O)c2ccccc2n2c(=O)n(CC(=O)c3cccc(Cl)c3)nc12`, 10.8 µM [falling, full curve].

The values above are taken from PubChem BioAssay (NCATS).
